Test results published in a collection of fitness landscapes (doi:10.1126/science.1257360).
Some of the results follow.

B1: PhoQ; a variant is named by its letters at X, in order, P23837 (parent)
chain: MKKLLRLFFPLSLRVRFLLATAAVVLVLSLAYGMVALIGYSVSFDKTTFRLLRGESNLFYTLAKWENNKLHVELPENIDKQSPTMTLIYDENGQLLWAQRDVPWLMKMIQPDWLKSNGFHEIEADVNDTSLLLSGDHSIQQQLQEVREDDDDAEMTHSVAVNVYPATSRMPKLTIVVVDTIPVELKSSYMVWSWFIYVLSANLLLVIPLLWVAAWWSLRPIEALAKEVRELEEHNRELLNPATTRELTSLVRNLNRLLKSERERYDKYRTTLTDLTHSLKTPLXXLQXXLRSLRSEKMSVSDAEPVMLEQISRISQQIGYYLHRASMRGGTLLSRELHPVAPLLDNLTSALNKVYQRKGVNISLDISPEISFVGEQNDFVEVMGNVLDNACKYCLEFVEISARQTDEHLYIVVEDDGPGIPLSKREVIFDRGQRVDTLRPGQGVGLAVAREITEQYEGKIVAGESMLGGARMEVIFGRQHSAPKDE

Variants of: B1
Test: enrichment ratio after two sorts for PhoP signalling (ratio (wild type AVST 3.29)); higher = more functional
Settings: with PhoP (E. coli)

Variant | enrichment ratio
ELHD | ≤ 0.25
FVMV | 0.818
TLPA | ≤ 0.25
YFAK | ≤ 0.25
EYCT | ≤ 0.25
SPNI | ≤ 0.25
AQYQ | 0.253
HYAC | ≤ 0.25
ADPV | ≤ 0.25
VEWI | 12.2
EIGR | ≤ 0.25
EVNS | ≤ 0.25
LQPT | ≤ 0.25
SCPI | 15.2
QTCR | ≤ 0.25
MATF | ≤ 0.25
IMKK | ≤ 0.25
GYTW | ≤ 0.25
GLEP | ≤ 0.25
GTDF | ≤ 0.25
AMKL | ≤ 0.25
NMQA | ≤ 0.25
IDLW | ≤ 0.25
QMWQ | ≤ 0.25
NDHI | ≤ 0.25
PLAL | ≤ 0.25

Variant | enrichment ratio
YMWS | ≤ 0.25
HQYE | ≤ 0.25
AQHN | ≤ 0.25
RTML | ≤ 0.25
EAKL | ≤ 0.25
HDGW | ≤ 0.25
GCFR | ≤ 0.25
WFHP | ≤ 0.25
PWMH | ≤ 0.25
QQVI | ≤ 0.25
LAKF | ≤ 0.25
NIDN | ≤ 0.25
AGNI | ≤ 0.25
DSGD | ≤ 0.25
QFSH | ≤ 0.25
GRGK | 4.62
EEIL | ≤ 0.25
RWPP | ≤ 0.25
VNAP | 0.384
EKIF | ≤ 0.25
VQEK | ≤ 0.25
KTPW | ≤ 0.25
KSLQ | ≤ 0.25
LHEF | ≤ 0.25
QHFR | ≤ 0.25
ENTL | ≤ 0.25

Variant | enrichment ratio
WLKF | ≤ 0.25
YEYT | ≤ 0.25
KIVC | ≤ 0.25
NGCI | ≤ 0.25
YQTI | 0.433
VLDY | ≤ 0.25
LTVG | ≤ 0.25
ESRL | ≤ 0.25
APWA | ≤ 0.25
FPLS | ≤ 0.25
ERAA | ≤ 0.25
VYSQ | ≤ 0.25
RMSW | ≤ 0.25
SWGM | ≤ 0.25
MEPP | ≤ 0.25
WGAP | ≤ 0.25
DCPD | ≤ 0.25
APPM | ≤ 0.25
WMTM | ≤ 0.25
MTSC | ≤ 0.25
NSCK | ≤ 0.25
QKLK | ≤ 0.25
WNFL | ≤ 0.25
LSCP | ≤ 0.25
KTLP | ≤ 0.25
VCYN | ≤ 0.25

Variant | enrichment ratio
IMII | ≤ 0.25
VTHR | 0.955
SQRL | ≤ 0.25
PMAS | ≤ 0.25
FNQN | ≤ 0.25
WMDS | ≤ 0.25
NVIC | ≤ 0.25
DGSW | ≤ 0.25
WQLE | ≤ 0.25
VECA | 3.45
GCKH | ≤ 0.25
TFPY | ≤ 0.25
ACGS | 10.4
EVRE | ≤ 0.25
DFSL | 1.11
VFCY | ≤ 0.25
SLRN | ≤ 0.25
KQVC | ≤ 0.25
LDLQ | ≤ 0.25
MPLM | ≤ 0.25
PMNT | ≤ 0.25
QFYE | ≤ 0.25
IHMC | ≤ 0.25
PQFD | ≤ 0.25
KYCD | ≤ 0.25
VCQI | ≤ 0.25

Variant | enrichment ratio
FMVH | ≤ 0.25
KCGK | ≤ 0.25
HEHP | ≤ 0.25
AAIM | 10.3
ANLG | 4.86
MPKT | ≤ 0.25
KQYF | ≤ 0.25
MCFR | ≤ 0.25
AVCV | 5.84
GKKN | ≤ 0.25
LNMV | ≤ 0.25
VERA | ≤ 0.25
IPCA | ≤ 0.25
GRDD | ≤ 0.25
IEER | ≤ 0.25
LQVG | ≤ 0.25
PDGY | ≤ 0.25
DEFG | ≤ 0.25
RRQY | ≤ 0.25
NNQK | ≤ 0.25
KPHF | ≤ 0.25
TGKQ | ≤ 0.25
VSHH | ≤ 0.25
FKSY | ≤ 0.25
PSEP | ≤ 0.25
KKHA | ≤ 0.25

Variant | enrichment ratio
EWSP | ≤ 0.25
VQLY | ≤ 0.25
NIQI | ≤ 0.25
LYYL | ≤ 0.25
RNEN | ≤ 0.25
RLAS | ≤ 0.25
MLHH | ≤ 0.25
HFED | ≤ 0.25
DKNA | ≤ 0.25
NIPR | ≤ 0.25
DVIN | ≤ 0.25
SCCM | 10.8
KCMV | ≤ 0.25
PTEA | ≤ 0.25
NLNW | ≤ 0.25
SKDQ | ≤ 0.25
AWAQ | ≤ 0.25
FGEP | ≤ 0.25
FVQL | ≤ 0.25
HNLS | ≤ 0.25
PPGE | ≤ 0.25
LFGT | 0.261
IMMS | ≤ 0.25
